Laboratory results reported in PubChem BioAssay AID1508624 (National Center for Advancing Translational Sciences (NCATS), 2021).
In all, about 48,000 compounds went through this assay and about 120 (0.25%) were called active. Another 4% or so got no clear call; they are omitted. Calls follow the shape of the dose curve; as a rule, active = well fitted activation curve with a large enough effect; inconclusive = small, poorly fitted or top-dose-only effect, or another doubt; inactive = no such curve, though single readings can be large or run the other way. The list shows a part of the results.

Experiment: Primary qHTS for Identification of Small Molecule Activators of Huntingtin-Antisense Promoter Activity; also: nearly all actives have a fitted effect of over 55% in size
Conditions: HEK293 HTT-AS promoter firefly luciferase reporter, 24 h; series mostly up to 57.5 µM; activity change, positive = activation: at the top concentration
Method in brief: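 Luminescence was read after Dual-Glo reagent and a 10 min room-temperature incubation. Values were normalized to vehicle (0% activity) and zero RLU (-100% activity). Reporter HEK293 cells had been exposed to compounds (up to 57.5 uM final) for 24 h.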

Activity change, positive = activation, inactive:
CCc1cccc(NC(=O)CN(C)S(=O)(=O)c2cccc3cccnc23)c1 -22.3%
Nc1ccc(C(=O)O)c(O)c1 0.694%
CC1CCc2c(sc(NC(=O)c3cc4nc(-c5ccc(Cl)cc5)cc(C(F)(F)F)n4n3)c2C#N)C1 (configuration not stated) 4.92% [at 11.5 µM, percent change from vehicle, -100% = no light]
CC(Sc1oc(-c2cccs2)nc1S(=O)(=O)c1ccccc1)c1ccccc1 (configuration not stated) -12%
Cn1nccc1C(=O)NCc1ccc2c(c1)CCN2C(=O)c1ccc(Cl)cc1 -10.2%
Cc1c(C(=O)Nc2ccc(F)cc2F)sc2nc3n(c(=O)c12)N=C(c1ccccc1)CS3 12.1%
COc1ccc(C(CNC(=O)COc2cc(C)cc(C)c2)N2CCOCC2)cc1 (configuration not stated) -14.4%
O=C1c2ccccc2-c2onc3c(NCCO)cc(NC4CCCCC4)c1c23 -31.2%
CCCCOc1ccc(Cn2c(=O)sc3ccccc32)cc1 -23.2%
COc1ccc(N2CCN(c3csc4ccccc4c3=O)CC2)cc1 17.4%
CCc1ccc(NC(=O)c2nn(-c3ccc(OC)cc3)c(=O)c3c2c2ccccc2n3C)cc1 -8.86%
CCc1ccc(Oc2c(C(F)(F)F)oc3c(CN4CCCC(C)C4)c(O)ccc3c2=O)cc1 (configuration not stated) -11%
CC(CNC(=O)CCS(=O)(=O)c1cc2c(cc1Cl)NC(=O)CO2)c1ccccc1 (configuration not stated) -3.24%
CCOC(=O)c1ccccc1NC(=O)CCc1nc(-c2ccc(C)cc2)no1 -1.86%
CCc1ccccc1NC(=O)C1CCCN(c2cnccn2)C1 (configuration not stated) 9.02%
C=C(C)C(=O)OCC(O)CO (configuration not stated) -8.79%
CCOc1nc2cccc(C(=O)O)c2n1Cc1ccc(-c2ccccc2-c2nn[nH]n2)cc1 -3.19%
NC(=O)NN=Cc1ccc([N+](=O)[O-])o1 2.6%
Cc1ccc(NC(=O)CSc2nc(=O)cc(N)n2CCc2ccccc2)cc1 -8.26%
O=C(Nc1cccc(NC(=O)c2ccccc2Cl)c1)c1cccc(Br)c1 -17%
CCC(CC)[C@H](NC(C)=O)[C@@H]1[C@H](O)[C@@H](C(=O)O)C[C@@H]1N=C(N)N -14.9%
CSc1ncc(C(=O)N2CCN(c3cccc(C(F)(F)F)c3)CC2)c(C)n1 -26.8%
O=C(c1ccccc1)c1ccccc1 1.01%
COc1ccccc1OCC(=O)Nc1c(C(=O)c2ccc(F)cc2)oc2ccccc12 -17%
Cc1ccc2c(c1)N(CCCC(=O)NCc1cccc(F)c1)C(=O)CO2 -5.47%
Cc1ncc(CO)c(CN)c1O -5.82%
COc1ccc(NC(=O)C(NC(=O)/C=C\c2ccc3c(c2)OCO3)c2ccccc2)cc1 (configuration not stated) -13.1%
Cc1ccc(NC(=O)C2CCN(S(=O)(=O)c3cc(-c4noc(C)n4)ccc3C)CC2)c(C)c1 -69.3%
CCCN(CCC)CCCNC(=O)c1cc2c(=O)[nH]c3ccccc3c2n1C -6.68%
COc1cccc(-n2c(=O)c3sc4ccccc4c3n(CC(=O)Nc3ccccc3C)c2=O)c1 -17.6%
O=C(CSc1c2c(nc3cc(Cl)ccc13)CCCC2)NCc1ccccc1Cl -62.9%
COc1ccc(C2CC(=O)c3cc(-c4nc(-c5cccc([N+](=O)[O-])c5)cs4)c(=O)n(-c4ccc(OC)cc4)c3C2)cc1 (configuration not stated) -3.97%
COc1ccc(C2N3CC4(C)CN2CC(c2ccccc2)(C3)C4=O)cc1OC (configuration not stated) 11%
CCOc1ccc(OCC)c(NC(=O)C2CCN(c3cnccn3)CC2)c1 -12%
N#Cc1cccc(NC(=O)c2ccc3c(c2)N(Cc2cccc(Cl)c2)C(=O)c2ccccc2S3(=O)=O)c1 -29.3%
O=C(Nc1nnc(S(=O)(=O)N2CCOCC2)s1)c1ccc(F)cc1 2.84%
O=C(c1ccc(F)cc1F)N1CCC(c2noc(-c3ccc(S(=O)(=O)N4CCCC4)cc3)n2)CC1 -2.45%
Cc1ccccc1-c1noc(-c2ccccc2OCC(=O)Nc2ccccc2[N+](=O)[O-])n1 -13.5%
CCc1ccc(S(=O)(=O)c2nnn3c2nc(NCc2ccccc2OC)c2cc(Cl)ccc23)cc1 16.2%
O=C(C=Cc1c(C(=O)O)[nH]c2cc(Cl)cc(Cl)c12)Nc1ccccc1 -15.3%
CCc1ccc(NC(=O)CN(Cc2ccccc2)S(=O)(=O)c2ccc3nc(C)sc3c2)cc1 -22.9%
Cn1c(=O)oc2cc(S(=O)(=O)Nc3ccc(O)cc3)ccc21 -7.62%
COc1ccc(C2NC(=O)N(C)C3=C2C(=O)N(c2ccc(C)cc2)C3)cc1 (configuration not stated) -18.5%
O=C(CCn1cnc2onc(-c3ccc(F)cc3)c2c1=O)N1CCN(c2cccc(Cl)c2)CC1 -27.4%
O=C(Nc1ccccc1C(F)(F)F)N1CCN(c2ccc3nnc(-c4ccc(F)cc4)n3n2)CC1 -34.7%
CCOc1ccc(CNC(=O)C2Cc3cc(S(=O)(=O)N4CCCCCC4)ccc3N2C(C)=O)cc1 (configuration not stated) -12.6%
CCC(C(=O)NCCCN(CC)CC)n1ncn2c(cc3occc32)c1=O (configuration not stated) -6.64%
Cc1ccc(NC(=O)Cn2c(-c3nonc3N)nc3ccccc32)cc1Cl -11.1%
CCc1ccc(NC(=O)C(=O)NCC(c2cccnc2)N2CCOCC2)cc1 (configuration not stated) -20%
O=C(c1ccc(F)cc1)C1CCN(CCn2c(=S)[nH]c3ccccc3c2=O)CC1 -15.1%
CCc1ccc(NC(=O)c2cc3c(=O)n(Cc4cccnc4)ccc3nc2C)cc1 -22.1%
O=C(O)Cn1nnc(-c2cc(N3CCC(Oc4cc(F)ccc4Br)CC3)no2)n1 -34.1%
Cc1cccc(C(=O)Nc2cccc(OCc3cc(=O)n4c(C)csc4n3)c2)c1 -16.5%
CC(C)c1nn2c(=O)cc(COC(=O)CNC(=O)c3ccccc3)nc2s1 4.41%
OCCc1ccccc1 -1.94%
COc1ccc(NC(=O)Cc2csc(COc3cccc(C)c3)n2)c(OC)c1 -12.3%
COc1ccc(-c2noc(CCC(=O)NCc3ccc(OC)cc3OC)n2)cc1 -25.9%
CCCN(CCC)CC(O)Cn1cc(/C=C/C(=O)c2ccc(OCC)cc2)c2ccccc21 (configuration not stated) -40.2%
O=C(O)c1ccccc1Nc1cccc(C(F)(F)F)c1 -9.46%
COc1ccc(OCC(=O)NCCS(=O)(=O)N2CCN(c3cccc(Cl)c3)CC2)cc1 -21.8%
CCn1cc(C(=O)N(C)Cc2ccccc2)c(=O)c2cc(S(=O)(=O)N3CCCCCC3)ccc21 -12.3%
Cc1ccc2oc(=O)n(CCNC(=O)Nc3ccc(C)c(F)c3)c2c1 -3.14%
